This note sets out measurements from article PMC7819943, “Rice protein-binding microarrays: a tool to detect cis-acting elements near promoter regions in rice”.

The other results are listed elsewhere or left out.

The target of the assay is T1, OsWOX13 (Oryza sativa, UniProt Q5QMM3 1-267).
T1 sequence: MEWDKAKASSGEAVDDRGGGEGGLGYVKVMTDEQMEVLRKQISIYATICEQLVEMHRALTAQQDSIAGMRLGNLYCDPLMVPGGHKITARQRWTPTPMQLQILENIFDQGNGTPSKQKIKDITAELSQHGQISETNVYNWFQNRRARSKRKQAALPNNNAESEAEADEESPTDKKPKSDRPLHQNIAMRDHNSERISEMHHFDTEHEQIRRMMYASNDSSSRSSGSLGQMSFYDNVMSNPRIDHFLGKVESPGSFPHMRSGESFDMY
The assay can be described thus: protein-binding microarray (RPBM); PBS, 2% BSA, 51.3 ng/ul salmon testes DNA, 50 uM zinc acetate, 200 nM TF, 25 C, 1 h; high values mean tight binding. Particulars: protein: recombinant; tags: N-terminal polyhistidine and DsRed monomer fusion (pET32a); label: CyDye5-dUTP incorporated in the synthesized complementary strand; 3' TTTTT single-stranded linker to array surface; dsDNA, one strand shown. Summed up:
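Transcription factors, each fused N-terminally to a polyhistidine tag and DsRed, were expressed in E. coli BL21-CodonPlus and purified on Ni–NTA. A custom Agilent array was made double-stranded by primer extension with Cy5-dUTP and blocked with 2% BSA. It was incubated with 200 nM protein in PBS, 2% BSA, salmon testes DNA and 50 µM zinc acetate at 25 °C for 1 h, then washed. The binding signal is per-feature fluorescence intensity (arbitrary units) read on an Axon 4000B scanner.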
On to “TTCGGCCGATGATTTAACACATTATCAGCGTAGATGTACGCGGAGTCACCTAGTGCAG”, for which the binding signal was 3790 fluorescence intensity (a.u.).

As for “TATGATCAATGATTGAATCGATCGAGAAGGTTAGTCGTCGCGGAGTCACCTAGTGCAG”, the binding signal was 48600 fluorescence intensity (a.u.).

With “CTAAAATAATTTTGCTATGGAATTGTATAGGTCGTATCAACGGAGTCACCTAGTGCAG”, the binding signal was 4540 fluorescence intensity (a.u.).

As for “CAAACTTTGCTGACTGAATTGGCTGTTCAATCTACTAATACGGAGTCACCTAGTGCAG”, the binding signal was 3430 fluorescence intensity (a.u.).

For the sequence “GAGTAATTGGGAAATCTGTGATAAGGTATGAATCTTCCCTCGGAGTCACCTAGTGCAG”, the binding signal was 41000 fluorescence intensity (a.u.).

Consider “AGATACTGGAACTACTCAATCATTGGCAAAAGAAAACGAACGGAGTCACCTAGTGCAG”, for which the binding signal is 5970 fluorescence intensity (a.u.).

As for “TGTAACTTTCATCCATCTAATTAAATTAAACGGTTATAAACGGAGTCACCTAGTGCAG”, the binding signal was 10600 fluorescence intensity (a.u.).

Consider “GAAGATTGAGAAGAAGAAGATGCTAGAGCTAGTCGATCTCCGGAGTCACCTAGTGCAG”, for which the binding signal is 4350 fluorescence intensity (a.u.).

As for “GTATAATCAACTTTGATCAGTGATTACTACTTTCGAAGTGCGGAGTCACCTAGTGCAG”, the binding signal was 20900 fluorescence intensity (a.u.).

As to “CATATATTGGTGTTGTGTGTGGGTGGGTGGGGCGGTGCTTCGGAGTCACCTAGTGCAG”, the binding signal was 7160 fluorescence intensity (a.u.).

Regarding “GAAATTAGAGATGATGTGACTGAAAAGTTATGTGTGTATGCGGAGTCACCTAGTGCAG”, the binding signal is 14100 fluorescence intensity (a.u.).

For the sequence “TCATAGATTTGGAGATTGTACTTGTATTTATGGGAAGGTCCGGAGTCACCTAGTGCAG”, the binding signal is 5870 fluorescence intensity (a.u.).

“ACACCAAAATTAAATTTTAAATTTTAGCTTATAAACATATCGGAGTCACCTAGTGCAG”: the binding signal is 7300 fluorescence intensity (a.u.).

Consider “AGTAGTGATTAATCCATGATTAGCGTATGTGATGCTAAAGCGGAGTCACCTAGTGCAG”, for which the binding signal is 43300 fluorescence intensity (a.u.).

In the case of “GTTCCAAATTGAAGTTACAAGCCTATAGGCTCATCATAGGCGGAGTCACCTAGTGCAG”, the binding signal was 6900 fluorescence intensity (a.u.).

As to “AGAGGGGACTGGGGAGGGGAGGGGCGGCGCTCGCTGGCTTCGGAGTCACCTAGTGCAG”, the binding signal was 4910 fluorescence intensity (a.u.).

In the case of “TCCAGGGTTTGCTACTAGATTGATGGGTGTCAAAGTCCTTCGGAGTCACCTAGTGCAG”, the binding signal was 6580 fluorescence intensity (a.u.).

Consider “TTACATTAGCAATTGATTGCTCTTATTTGACCATGATGTTCGGAGTCACCTAGTGCAG”, for which the binding signal was 31500 fluorescence intensity (a.u.).

On to “CCTTAAATTTTCCTAAATCCTTACCTACCGTCATTCTCTCCGGAGTCACCTAGTGCAG”, for which the binding signal is 4710 fluorescence intensity (a.u.).

Take “ATAAATTTCAGATCAAATTTGATGAATTTCGTATATCTTCCGGAGTCACCTAGTGCAG”: the binding signal is 11600 fluorescence intensity (a.u.).

For the sequence “CTCTCAATCATTCTAATCGATAGCACTCGCCGCGGCGGCGCGGAGTCACCTAGTGCAG”, the binding signal was 11400 fluorescence intensity (a.u.).

For “TTGAAAATTTAAATTTTGACCGATAAACATAAGCATAAGCCGGAGTCACCTAGTGCAG”, the binding signal was 18100 fluorescence intensity (a.u.).

Take “TGAAAATAATTTCGAATCATTCGGCATAGAGTTGGGGTGTCGGAGTCACCTAGTGCAG”: the binding signal is 3830 fluorescence intensity (a.u.).

For “AAAACAAATTACATAATCCGCATGTAAACTGCGAGATGAACGGAGTCACCTAGTGCAG”, the binding signal was 11300 fluorescence intensity (a.u.).

Consider “ACAAAATCATATTATTAGAATATATTATATTTTCGTACTGCGGAGTCACCTAGTGCAG”, for which the binding signal was 3540 fluorescence intensity (a.u.).

For “AAGATATATTTATAATAAATGTAATTGCCAATGTACGTATCGGAGTCACCTAGTGCAG”, the binding signal is 4580 fluorescence intensity (a.u.).

As for “CCCGATGATTGGACGACCATATCAATGAGTCGTATGAAGGCGGAGTCACCTAGTGCAG”, the binding signal was 52000 fluorescence intensity (a.u.).

As for “CCTAATCTAATCTCCTGGAATAATGGTTTCTACTCGCGCACGGAGTCACCTAGTGCAG”, the binding signal was 3730 fluorescence intensity (a.u.).

Consider “GGAGAACAAATTGAAATTGCTCCACCCTTTTGGCTAATGTCGGAGTCACCTAGTGCAG”, for which the binding signal was 14600 fluorescence intensity (a.u.).

As to “TATGATTTGATTGATTTCTGGATCAGATTGCGTCCCTTGCCGGAGTCACCTAGTGCAG”, the binding signal was 38400 fluorescence intensity (a.u.).

Take “TTCACCAATCTATCTATCTACCCTATAATTCACAACACATCGGAGTCACCTAGTGCAG”: the binding signal was 7320 fluorescence intensity (a.u.).

“GCATATCCAATTATCCATTGCCATTATAGCGAAAGCAGTACGGAGTCACCTAGTGCAG”: the binding signal is 4420 fluorescence intensity (a.u.).

Turning to “AGTGATGGAATTTAAAAGTCACCCCTACAAAATACAGAAACGGAGTCACCTAGTGCAG”, the binding signal is 3330 fluorescence intensity (a.u.).

“TAGGGAATATTACGCCATTAATTGGATTGTTTTGATTCGTCGGAGTCACCTAGTGCAG”: the binding signal is 8130 fluorescence intensity (a.u.).

For the sequence “AATTAAATTTAATAGATTCGTCTCGCAGTTTACATGCGGACGGAGTCACCTAGTGCAG”, the binding signal was 31700 fluorescence intensity (a.u.).

Regarding “AGAGTGTAAATTACACTAGGATGACACATACTCCCTCCGTCGGAGTCACCTAGTGCAG”, the binding signal was 4940 fluorescence intensity (a.u.).

For the sequence “AGTGGATTGAGGGTGATGGTGGCGGCGTATTGGGGAGGCACGGAGTCACCTAGTGCAG”, the binding signal was 13500 fluorescence intensity (a.u.).

With “CAATCAATTTCATGATTATTTGATTTTGTACTTCAAGCAACGGAGTCACCTAGTGCAG”, the binding signal was 26500 fluorescence intensity (a.u.).

For “GTTAAAACTATATGATTGTGTGAGTCAGCGCACTTTGCACCGGAGTCACCTAGTGCAG”, the binding signal was 3730 fluorescence intensity (a.u.).

“ATAATTAATTGCGAAAATCAGAGGCTGGCAGTATATATTCCGGAGTCACCTAGTGCAG”: the binding signal was 24100 fluorescence intensity (a.u.).

On to “TAGCAACTAATTTGTGTTTGATAGAATCTCTGGCAGCTTACGGAGTCACCTAGTGCAG”, for which the binding signal was 16000 fluorescence intensity (a.u.).

Turning to “TCAGTTTAAATGTGGCTCTCAATCAAACACTAGCTTAAGACGGAGTCACCTAGTGCAG”, the binding signal was 3450 fluorescence intensity (a.u.).
